We go through 20 molecules from publication PMC9911399, “Two distinct binding modes provide the RNA-binding protein RbFox with extraordinary sequence specificity”.

Residue numbers refer to the chain shown, from its start. Some of the results follow.

T1: RBFOX1 RRM (Homo sapiens, UniProt Q9NWB1 109-208)
T1 sequence: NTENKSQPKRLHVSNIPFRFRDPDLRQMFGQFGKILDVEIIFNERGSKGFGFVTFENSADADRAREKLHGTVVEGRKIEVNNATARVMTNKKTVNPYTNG

B1: AACCGUA (DNA:RNA)
RNA: GGGAGACCGGAAUUCAGAUUGUCCAACCGUAUUAAAUCCCGUCGUAGCCACCA
DNA 1: CAATCTGAATTCCGGTCTCCC
DNA 2: TGGTGGCTACGACGGGATT
B2: AGCAACC (DNA:RNA)
RNA: B1 RNA with A26G, C28A, G29A, U30C, A31C
DNA 1: CAATCTGAATTCCGGTCTCCC
DNA 2: TGGTGGCTACGACGGGATT
B3: CGCGCGG (DNA:RNA)
RNA: B1 RNA with A25C, A26G, C28G, G29C, U30G, A31G
DNA 1: CAATCTGAATTCCGGTCTCCC
DNA 2: TGGTGGCTACGACGGGATT
B4: ACUUAUU (DNA:RNA)
RNA: B1 RNA with A26C, C27U, C28U, G29A, A31U
DNA 1: CAATCTGAATTCCGGTCTCCC
DNA 2: TGGTGGCTACGACGGGATT
B5: GAUGCGU (DNA:RNA)
RNA: B1 RNA with A25G, C27U, C28G, G29C, U30G, A31U
DNA 1: CAATCTGAATTCCGGTCTCCC
DNA 2: TGGTGGCTACGACGGGATT
B6: GGCCCGG (DNA:RNA)
RNA: B1 RNA with A25G, A26G, G29C, U30G, A31G
DNA 1: CAATCTGAATTCCGGTCTCCC
DNA 2: TGGTGGCTACGACGGGATT
B7: CUCUGAU (DNA:RNA)
RNA: B1 RNA with A25C, A26U, C28U, U30A, A31U
DNA 1: CAATCTGAATTCCGGTCTCCC
DNA 2: TGGTGGCTACGACGGGATT
B8: CUGUUAG (DNA:RNA)
RNA: GGGAGACCGGAAUUCAGAUUGUCCCUGUUAGUUAAAUCCCGUCGUAGCCACCA
DNA 1: CAATCTGAATTCCGGTCTCCC
DNA 2: TGGTGGCTACGACGGGATT
B9: AACUACA (DNA:RNA)
RNA: B1 RNA with C28U, G29A, U30C
DNA 1: CAATCTGAATTCCGGTCTCCC
DNA 2: TGGTGGCTACGACGGGATT
B10: GCAUGCG (DNA:RNA)
RNA: B8 RNA with C25G, U26C, G27A, U29G, A30C
DNA 1: CAATCTGAATTCCGGTCTCCC
DNA 2: TGGTGGCTACGACGGGATT
B11: ACAUCGC (DNA:RNA)
RNA: B1 RNA with A26C, C27A, C28U, G29C, U30G, A31C
DNA 1: CAATCTGAATTCCGGTCTCCC
DNA 2: TGGTGGCTACGACGGGATT
B12: GGCUUGC (DNA:RNA)
RNA: B8 RNA with C25G, U26G, G27C, A30G, G31C
DNA 1: CAATCTGAATTCCGGTCTCCC
DNA 2: TGGTGGCTACGACGGGATT
B13: GUUUUCC (DNA:RNA)
RNA: B8 RNA with C25G, G27U, A30C, G31C
DNA 1: CAATCTGAATTCCGGTCTCCC
DNA 2: TGGTGGCTACGACGGGATT
B14: CUUUAAU (DNA:RNA)
RNA: B8 RNA with G27U, U29A, G31U
DNA 1: CAATCTGAATTCCGGTCTCCC
DNA 2: TGGTGGCTACGACGGGATT
B15: AGCCACG (DNA:RNA)
RNA: B1 RNA with A26G, G29A, U30C, A31G
DNA 1: CAATCTGAATTCCGGTCTCCC
DNA 2: TGGTGGCTACGACGGGATT
B16: UUGUUAA (DNA:RNA)
RNA: B8 RNA with C25U, G31A
DNA 1: CAATCTGAATTCCGGTCTCCC
DNA 2: TGGTGGCTACGACGGGATT
B17: GGCACCG (DNA:RNA)
RNA: B1 RNA with A25G, A26G, C28A, G29C, U30C, A31G
DNA 1: CAATCTGAATTCCGGTCTCCC
DNA 2: TGGTGGCTACGACGGGATT
B18: AAUCAAA (DNA:RNA)
RNA: B1 RNA with C27U, G29A, U30A
DNA 1: CAATCTGAATTCCGGTCTCCC
DNA 2: TGGTGGCTACGACGGGATT
B19: GGUUGUC (DNA:RNA)
RNA: B1 RNA with A25G, A26G, C27U, C28U, A31C
DNA 1: CAATCTGAATTCCGGTCTCCC
DNA 2: TGGTGGCTACGACGGGATT
B20: CCUCAUC (DNA:RNA)
RNA: B1 RNA with A25C, A26C, C27U, G29A, A31C
DNA 1: CAATCTGAATTCCGGTCTCCC
DNA 2: TGGTGGCTACGACGGGATT

This experiment deals with T1, RBFOX1 RRM. Put plainly: EMSA; HiTS-Eq, 1 nM pool, 10 min; buffer printed only for the single-RNA assays: 10 mM Tris pH 7.5, 150 mM NaCl, 3.4 mM EDTA, 0.001% NP-40, 30 C. Particulars: tags: His6 N-terminal (pET28a); label: 5' 32P. The method, boiled down: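 Purified RbFox RRM, wild type or mutant, was incubated for 10 min in 50 µL with 1 nM of a 5′-radiolabelled RNA pool carrying 7 randomized nucleotides, whose flanks were annealed to DNA oligonucleotides, over a series of increasing protein concentrations. Unbound RNA was resolved on 8% native PAGE, cut out, reverse-transcribed, barcoded by PCR and sequenced on an Illumina HiSeq 2500. Relative association constants were derived from changes in read counts for each RNA species versus the control reaction and normalised to the cognate motif.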
A general note: A gel shift assay detects complexes by their altered migration in electrophoresis.
Regarding B1, the binding signal was 0.00191 KA relative to UGCAUGU. To B2 belongs 0.00366 KA relative to UGCAUGU; to B3, 0.0117 KA relative to UGCAUGU; to B4, 0.00196 KA relative to UGCAUGU. To B5 belongs 0.0175 KA relative to UGCAUGU; to B6, 0.0166 KA relative to UGCAUGU; to B7, 0.0118 KA relative to UGCAUGU. With B8 the figure was 0.0151 KA relative to UGCAUGU.

Turning to B9, the binding signal is 0.00222 KA relative to UGCAUGU. To B10 belongs 0.916 KA relative to UGCAUGU; to B11, 0.00159 KA relative to UGCAUGU. To B12 belongs 0.0328 KA relative to UGCAUGU. B13: the binding signal was 0.0256 KA relative to UGCAUGU. In the case of B14, the binding signal is 0.0018 KA relative to UGCAUGU. For the molecule B15, the binding signal is 0.00567 KA relative to UGCAUGU. To B16 belongs 0.0121 KA relative to UGCAUGU; to B17, 0.0143 KA relative to UGCAUGU; to B18, 0.000661 KA relative to UGCAUGU. Consider B19, for which the binding signal is 0.0246 KA relative to UGCAUGU.

For the molecule B20, the binding signal is 0.00564 KA relative to UGCAUGU.
